# Measurements from PMC4336329 (PLoS ONE, 2015).
# In all, about 310,000 compounds went through this assay and about 2,200 (0.71%) showed an effect of 50% or more. Effects have a minus sign here. The list shows a part of the results.
# Target: human ether-à-go-go-related gene (hERG) potassium channel (human, UniProt Q12809)
# Assay: primary screen, population patch clamp on CHO cells stably expressing hERG
# Chain of human ether-à-go-go-related gene (hERG) potassium channel (Q12809 whole entry, looked up): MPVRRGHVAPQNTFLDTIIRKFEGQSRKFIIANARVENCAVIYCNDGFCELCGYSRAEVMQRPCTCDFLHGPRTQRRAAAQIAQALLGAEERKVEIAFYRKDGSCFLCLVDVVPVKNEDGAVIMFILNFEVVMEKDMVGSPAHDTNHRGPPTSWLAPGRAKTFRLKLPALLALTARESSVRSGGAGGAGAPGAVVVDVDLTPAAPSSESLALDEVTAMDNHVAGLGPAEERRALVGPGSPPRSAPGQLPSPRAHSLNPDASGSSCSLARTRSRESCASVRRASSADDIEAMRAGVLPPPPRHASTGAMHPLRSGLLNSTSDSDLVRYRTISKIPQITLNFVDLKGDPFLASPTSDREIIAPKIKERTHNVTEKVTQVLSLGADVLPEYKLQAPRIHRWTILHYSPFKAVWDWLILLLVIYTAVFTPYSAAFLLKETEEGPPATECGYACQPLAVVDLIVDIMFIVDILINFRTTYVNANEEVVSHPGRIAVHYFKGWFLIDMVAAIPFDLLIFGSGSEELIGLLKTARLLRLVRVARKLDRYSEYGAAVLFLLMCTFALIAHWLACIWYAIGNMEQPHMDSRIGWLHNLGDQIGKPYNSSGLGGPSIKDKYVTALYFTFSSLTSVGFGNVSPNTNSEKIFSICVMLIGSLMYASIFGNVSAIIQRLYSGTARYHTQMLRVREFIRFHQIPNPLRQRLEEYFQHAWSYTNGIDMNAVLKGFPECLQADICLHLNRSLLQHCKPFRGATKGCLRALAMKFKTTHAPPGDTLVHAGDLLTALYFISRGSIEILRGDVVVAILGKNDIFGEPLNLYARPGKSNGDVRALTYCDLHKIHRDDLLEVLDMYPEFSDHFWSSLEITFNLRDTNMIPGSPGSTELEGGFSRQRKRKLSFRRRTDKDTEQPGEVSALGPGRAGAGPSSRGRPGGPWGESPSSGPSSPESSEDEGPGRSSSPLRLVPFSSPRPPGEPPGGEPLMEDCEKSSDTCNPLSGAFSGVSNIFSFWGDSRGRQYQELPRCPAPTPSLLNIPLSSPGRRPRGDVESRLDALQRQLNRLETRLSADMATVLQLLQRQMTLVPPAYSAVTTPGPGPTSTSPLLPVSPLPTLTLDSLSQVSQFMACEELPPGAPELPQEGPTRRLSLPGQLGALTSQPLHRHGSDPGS
row,Structure (SMILES),"hERG current change (%, negative = inhibition) at 1uM"
1,OCCCNc1cc(-c2ccnc(Nc3cccc(Cl)c3)n2)ccn1,11.8%
2,O=[N+]([O-])c1ccc2nonc2c1Nc1cccc(F)c1,9.76%
3,CCN(CC)C(=O)C(=O)c1cn(CC(=O)NCC2CCCO2)c2ccccc12 (stereo not drawn),9.44%
4,Cc1oc2c(c(C)cc3oc(=O)c(CC(=O)NCCC(=O)O)c(C)c32)c1C,12.5%
5,CCC(=O)Nc1ccc(N2CCN(Cc3ccccc3F)CC2)cc1,-0.732%
6,COc1ccc(C2(C(=O)NCCc3ccccc3)CCCC2)cc1,7.27%
7,CCC(=NCCO)c1c(O)n(-c2ccccc2)c(=O)[nH]c1=O,14.8%
8,O=C(COC(=O)CSc1ccc(F)cc1)NCCCc1ccccc1,12.6%
9,Cc1ccc(NC(=O)c2c(C)nn(-c3ccccc3)c2Cl)cc1,0.559%
10,O=C(c1ccc2snnc2c1)N1CCCC1,12.4%
11,COc1ccc(C(=O)Nc2ccncc2)cc1S(=O)(=O)N1CCOCC1,11.9%
12,OC(C#CCN1CCCC1)(c1ccccc1)c1ccccc1,-6.28%
13,COC(=O)CC1COc2ccccc2N1C(=O)c1ccc(Br)cc1 (stereo not drawn),4.26%
14,O=C1COc2ccc(C(=O)COC(=O)c3ccc4ccccc4n3)cc2N1,12.8%
15,Cc1ccc(C)c(NC(=O)CN(C)C(=O)c2cc3c(s2)CCCCC3)c1,1.51%
16,O=C(Nc1nc(=O)n(C(=O)c2cccc(C(F)(F)F)c2)s1)c1ccccc1,8.83%
17,CC(C)=C1C2CC2C2C(C(=O)O)C12 (stereo not drawn),12.1%
18,CCC(C)NC(=O)c1c(N)n(/N=C/c2ccccn2)c2nc3ccccc3nc12 (stereo not drawn),5.12%
19,O=C1CC(NNC(=O)c2ccccc2)C(=O)N1 (stereo not drawn),13.8%

row,Structure (SMILES),"hERG current change (%, negative = inhibition) at 1uM"
1,CCOc1cccc(C(=O)Nc2ccc(N3CCCC3)cc2)c1,11.3%
2,COCCC(=O)N1CCc2c([nH]c3ccccc23)C1C(C)(C)C (stereo not drawn),3.37%
3,N#Cc1ccc(OCC(=O)Nc2cc(S(=O)(=O)N3CCOCC3)ccc2N2CCOCC2)cc1,0.376%
4,COc1ccc(-n2c(N)c(C(=O)NCC3CCCO3)sc2=S)cc1 (stereo not drawn),-11.1%
5,C/C(=C\C(=O)C(F)(F)F)Nc1ccc(C(F)(F)F)cc1,10.6%
6,CC(C)(C)SCCNC(=O)CN(c1ccccc1)S(=O)(=O)c1ccc(F)cc1,5.94%
7,CC(C)n1ncc(C(N)=O)c1N,13.1%
8,Cc1nc2ccccc2c2c1C(=O)N(C1CCCCCCC1)C2=O,-2.74%
9,O=C(NCC1CCCO1)c1cc(C(=O)c2ccc(Cl)cc2Cl)c[nH]1 (stereo not drawn),9.06%
10,COCCCNC(=O)Cc1ccc(S(=O)(=O)N2CCOCC2)s1,9.12%
11,CCOc1ccc(S(=O)(=O)Nc2cccnc2)cc1,17.8%
12,N#Cc1ccsc1NC(=O)COC(=O)c1cc(Br)ccc1O,8.67%
13,CCC(C)NCC(=O)Nc1ccc(-c2nc3cc(NC(=O)CNC(C)CC)ccc3o2)cc1 (stereo not drawn),5.15%
14,Cc1c(N(C)S(=O)(=O)c2cc(C(=O)NCC3CCCO3)ccc2Cl)c(=O)n(-c2ccccc2)n1C (stereo not drawn),4.94%
15,CCOC(=O)NC(=O)C(=CNc1cccc(OC)c1)C(=O)NC(=O)OCC,15.1%
16,Clc1ccccc1-c1nnc2sc(CCc3ccccc3)nn12,9.95%
17,COc1cccc(COC(=O)CSCC(=O)Nc2cccc(C)c2)c1OC,10.1%
18,COc1ccc(/C=N/NC(=O)c2ccc3ccccc3c2)cc1OS(=O)(=O)c1ccc(NC(C)=O)cc1,-1.89%
19,Cc1cc(C)n(C(=O)c2ccc(NC(=O)C3COc4ccccc4O3)cc2)n1 (stereo not drawn),0.869%

row,Structure (SMILES),"hERG current change (%, negative = inhibition) at 1uM"
1,COc1ccc(OCCC(=O)c2ccc(OC)cc2)cc1,4.68%
2,CCN1CCC(C(N)=O)CC1,6.67%
3,O=C(NCCOc1ccccc1)C1CCC(=O)N(CCCN2CCCC2=O)C1 (stereo not drawn),7.28%
4,O=C(CSc1nnc(-c2n[nH]c3ccccc23)n1-c1ccccc1)Nc1ccccc1Cl,6.69%
5,O=C(Nc1cccc(NC(=O)c2ccc(Cl)cc2)n1)c1ccc(Cl)cc1,14.3%
6,C=CCNC(=O)/C(C#N)=C/c1cc(Br)ccc1OC,14.8%
7,COc1ccccc1CNC(=O)C1CCN(S(=O)(=O)c2ccc3c(c2)C(C)(C)C(=O)N3C)CC1,7.82%
8,O=C(c1cccs1)N1CCN=C1SCc1cccc(F)c1,10.6%
9,N#Cc1ccc(NC(=O)CN2C(=O)NC3(CCCCCCC3)C2=O)cc1Cl,16.7%
10,O=C(NCCN1CCN(c2ccccc2F)CC1)c1cccn2c(=O)c3ccccc3nc12,-31.8%
11,CC(O)CCC(=O)NNC(=S)Nc1ccccc1 (stereo not drawn),-1.37%
12,CCOc1ccc(OCC(=O)Nc2ccc(N3CCCCC3)cc2)cc1,12.3%
13,Cc1ccc(C(=O)C(C)OC(=O)CCN=C2NS(=O)(=O)c3ccccc32)cc1 (stereo not drawn),11.4%
14,O=C(COc1ccc(Cl)cc1Cl)NCCCN1CCOCC1,-2.5%
15,C#CCNC(=O)C1=C[C@@H](c2cn(C(C)=O)c3ccccc23)C[C@@H](OCc2ccc(CO)cc2)O1,4.99%
16,CS(=O)(=O)N1CCc2cc(-c3csc(NC(=O)Cc4cccs4)n3)ccc21,-5%
17,C/C(Cl)=C\Cn1c(NCCc2ccccc2)nc2c1c(=O)n(C)c(=O)n2C,-5.76%
18,CCOc1c(C)cc2[nH]c(CCC(=O)O)nc2c1C.Cl,5.57%
19,C=CCn1c(CCNC(=O)c2ccccc2F)nnc1SCC(=O)Nc1ccc(OC)cc1,3.27%
